Measurements published in paper PMC4336329 (PLoS ONE, 2015).
The campaign covered roughly 310,000 compounds. About 14,000 (4.5%) showed an effect of 50% or more. Effects have a minus sign here. Some of the results follow.

target: human ether-à-go-go-related gene (hERG) potassium channel (human, UniProt Q12809); assay: primary screen, population patch clamp on CHO cells stably expressing hERG
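Further: peak tail current of the secondary pulse compared with the same well before compound.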

human ether-à-go-go-related gene (hERG) potassium channel, sequence (Q12809 whole entry, looked up): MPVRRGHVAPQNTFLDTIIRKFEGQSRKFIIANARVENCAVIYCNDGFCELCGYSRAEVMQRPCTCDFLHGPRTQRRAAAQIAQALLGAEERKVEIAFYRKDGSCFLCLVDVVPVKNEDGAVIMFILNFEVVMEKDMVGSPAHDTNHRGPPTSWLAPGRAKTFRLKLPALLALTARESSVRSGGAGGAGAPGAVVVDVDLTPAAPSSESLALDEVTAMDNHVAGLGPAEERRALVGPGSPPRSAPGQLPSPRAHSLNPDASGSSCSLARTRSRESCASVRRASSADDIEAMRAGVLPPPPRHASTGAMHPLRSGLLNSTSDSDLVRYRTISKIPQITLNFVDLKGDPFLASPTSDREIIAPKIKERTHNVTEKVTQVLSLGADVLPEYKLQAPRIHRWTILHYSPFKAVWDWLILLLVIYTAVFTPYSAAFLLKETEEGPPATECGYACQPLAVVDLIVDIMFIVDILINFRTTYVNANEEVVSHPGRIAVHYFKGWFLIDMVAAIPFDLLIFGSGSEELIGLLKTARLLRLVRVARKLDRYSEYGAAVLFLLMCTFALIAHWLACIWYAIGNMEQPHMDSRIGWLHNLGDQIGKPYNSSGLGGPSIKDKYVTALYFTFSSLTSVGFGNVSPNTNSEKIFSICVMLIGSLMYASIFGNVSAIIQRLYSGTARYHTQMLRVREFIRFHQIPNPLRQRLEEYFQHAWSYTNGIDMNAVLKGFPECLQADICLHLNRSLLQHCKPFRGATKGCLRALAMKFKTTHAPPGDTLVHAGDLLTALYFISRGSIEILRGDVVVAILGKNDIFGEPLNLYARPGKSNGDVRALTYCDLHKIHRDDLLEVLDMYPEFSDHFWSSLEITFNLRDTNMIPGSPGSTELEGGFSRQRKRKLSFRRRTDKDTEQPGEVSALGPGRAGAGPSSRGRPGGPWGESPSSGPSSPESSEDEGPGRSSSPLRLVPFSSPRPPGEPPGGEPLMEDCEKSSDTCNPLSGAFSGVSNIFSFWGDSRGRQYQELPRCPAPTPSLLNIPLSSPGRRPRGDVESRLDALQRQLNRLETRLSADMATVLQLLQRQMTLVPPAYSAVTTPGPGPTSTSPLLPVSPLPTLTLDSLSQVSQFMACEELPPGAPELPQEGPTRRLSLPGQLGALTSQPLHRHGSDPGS

Compound	hERG current change (%, negative = inhibition) at 10uM [%]
O[C@@H]1CN(Cc2ccccc2Cl)CC[C@H]1N1CCOCC1	17.6
CCc1c(C)nc(SCC(=O)Nc2nc(-c3ccc(OC)cc3)cs2)[nH]c1=O	22.2
NC(=O)NCc1ccccc1Cl	15.9
Cc1ccc(S(=O)(=O)Nc2cccc(-c3cn4ccsc4n3)c2)cc1	-2.67
Cn1cccc1Cc1nnc(SCC(=O)Nc2ccc3c(c2)OCCO3)n1-c1ccc(F)cc1	-7.1
COc1ccc(OC)c(NC(=O)[C@@H]2CCCN2C(=O)c2cccs2)c1	-2.19
CN1CCN(C(=O)C2=C[C@H](c3coc4ccccc4c3=O)C[C@H](OCc3ccc(CO)cc3)O2)CC1	-41.1
COc1ccc(C(=O)c2c(N)sc3c2CCN(C(=O)OC(C)(C)C)C3)cc1	9.87
CC(C)NCC(=O)C12CC3CC(CC(C3)C1)C2	0.0346
CCC(Sc1nc2ccncc2[nH]1)C(=O)Nc1cc(Cl)ccc1C (stereo not drawn)	-44.3
COc1cc(CN(C(=S)NCC(=O)N2CCCC2)C2CCCC2)cc(OC)c1OC	6.25
CCN(C(=O)COC(=O)c1ccccc1NC(=O)c1ccco1)C1CCS(=O)(=O)C1 (stereo not drawn)	-72.1
CN(CCOc1ccccc1)S(=O)(=O)c1ccccc1C#N	-30.7
COc1ccc(OC)c(NC(=O)NC2CCCc3ccccc32)c1 (stereo not drawn)	2.64
CN1CCN(CCCN2c3ccccc3Sc3ccc(C(F)(F)F)cc32)CC1.Cl	-30.4
Cc1cc(C)c(C)c(OCCCCN(C)Cc2ccccc2)c1.O=C(O)C(=O)O	-2.9
CCNC(=O)NC(=O)c1csc([N+](=O)[O-])c1	10
FC(F)(F)c1cc(-c2ccc(Cl)cc2)nc(NCc2cccnc2)n1	3.07
Cc1ccnc(Nc2nc(-c3ccc(O)cc3O)cs2)c1	12
COc1ccc(C(=O)NCCc2nnc3ccc(SCC(=O)N4CCCC4)nn23)cc1	11.5
Cc1cc2nccc(-c3ccc(OCCCF)cc3)n2n1	-22.3
Cc1ccc(C(=O)CSc2nnc(-c3ccco3)n2CC2CCCO2)cc1 (stereo not drawn)	-13.3

Compound	hERG current change (%, negative = inhibition) at 10uM [%]
O=S(=O)(Nc1nccs1)c1ccc(Nc2nnc(-c3ccccc3)c3ccccc23)cc1	13.7
COc1cc([N+](=O)[O-])ccc1NC(=O)CCN1C(=O)C2C3CCC(C3)C2C1=O (stereo not drawn)	-12.4
Cc1nn2c3ccccc3n(CC(=O)c3cccs3)c2nc1=O	1.78
O=C(Nc1ccccc1)Nc1ccc2ncoc2c1	24.7
CC1(C)CC(NC(=O)C(C)(C)Oc2ccc(Cl)cc2)CC(C)(C)N1	-1.9
CC1CC(C)CN(S(=O)(=O)c2ccc(C(C)(C)C)cc2)C1 (stereo not drawn)	16
CCN1CCN(c2ccc(S(=O)(=O)N3CCCC3)cn2)CC1	16.2
O=c1oc2ccccc2cc1-c1ccc(O)cc1	-7.37
Cc1ccc(OCC(=O)NC(=S)Nc2ccc(Br)cn2)cc1C	13.8
O=C(OCC(=O)c1cccs1)C1=COCCO1	19.7
O=C(CSc1nnc(CNC(=O)c2c(F)cccc2Cl)o1)Nc1ccc2c(c1)OCCO2	10.6
CC1CCCCN1C(=O)c1ccc(NC(=O)c2ccccc2Cl)cc1 (stereo not drawn)	7.09
O=C(CSc1nnc2ccccn12)NC(=O)NC1CCCC1	13.4
COc1cc2c(cc1OC)C(c1ccc(Cl)cc1)CC(=O)N2 (stereo not drawn)	-2.54
Cc1ccc(OCc2nnnn2-c2ccccc2)cc1	-9.94
Cc1cccc(-c2cc3nc(-c4ccccc4)cc(=O)n3[nH]2)c1	7.06
O=C(c1cc2cc(Cl)ccc2[nH]1)N1CCC2(CC1)OCCO2	-7.66
CC1(c2ccc(OC(F)F)cc2)NC(=O)N(CC(=O)Nc2ccc(S(N)(=O)=O)cc2)C1=O (stereo not drawn)	1.64
Cc1ccc(NC(=O)CCC(=O)NNC(=O)C(c2ccccc2)c2ccccc2)c(C)c1	14.7
O=C(CNC(=O)c1ccc(Br)o1)NCC(=O)OCc1ccccc1	-15.8
COc1ccc(N(C(=O)c2cccc([N+](=O)[O-])c2)S(=O)(=O)c2ccc3c(c2)n(C)c(=O)n3C)cc1	-5.42
CCCn1c(SCC(=O)NNC(=O)c2ccccc2)nnc1-c1cccnc1	-30.9

Compound	hERG current change (%, negative = inhibition) at 10uM [%]
Cc1ccc(S(=O)(=O)/N=C(\CN2CCOCC2)N2CCCC2)cc1	10.2
CCOc1cc(N2CCOCC2)c(OCC)cc1NC(=O)CN1CCSC1=O	-13.6
Cc1ccc(OCC(=O)Nc2ccc3oc(=O)ccc3c2)c(C)c1	-26.5
COc1ccc(CCNC(=O)CN(C)S(=O)(=O)c2ccc3nc(C)sc3c2)cc1OC	5.4
COc1ccc(-n2c(SCc3cn4c(C)cccc4n3)nc3ccccc3c2=O)cc1OC	-13.2
CCOc1ccccc1NC(=O)COC(=O)Cc1ccc(-c2ccccc2)cc1	2.11
CC(C)NC(=O)c1ccc(S(=O)(=O)N(C)C)cc1	0.0301
CCN(CC)C(=O)CSc1nnc(-c2ccc(S(=O)(=O)N3CCOCC3)cc2)n1C	10.4
O=C(N/N=C/c1ccc(F)cc1)c1cc(-c2ccco2)nc2ccccc12	-0.0327
Cc1ccc(/C=N/NC(=O)c2cccc([N+](=O)[O-])c2)o1	-15.2
N[C@@H](Cc1ccc(O)cc1)C(=O)Nc1ccc2ccccc2c1	-6.11
N#CC(C(=O)Nc1ccccc1)=C1CCCCC1	6.6
O=C(NC(=S)N1CCCc2ccccc21)c1ccc(Cl)cc1	4.23
COc1ccc(/C=C(\NC(=O)c2ccc(OC)cc2)C(=O)N2CCCCC2)cc1	-3.21
Cc1ccccc1N1CCN(S(=O)(=O)N(C)C)CC1	0.18
CC1CCCCN1C(=O)c1ccc(Br)o1 (stereo not drawn)	4.26
CCN(C(=O)COC(=O)CCc1ccccc1)c1ccccc1	6.18
COc1ccccc1N(CC(O)CN(c1ccccc1)S(C)(=O)=O)S(=O)(=O)c1ccccc1 (stereo not drawn)	-3.85
N#CCCN(C(=O)COC(=O)c1ccc(S(=O)(=O)Nc2ccccc2)cc1)c1ccccc1	1.54
CC1CC(C)CN(C(=O)COc2ccc([N+](=O)[O-])cc2Cl)C1 (stereo not drawn)	23.8
COCCN(CC(=O)Nc1cccc(C)c1C)C(=O)c1oc2c(Cl)cccc2c1C	-9.84
O=C(CSc1nnc2ccc(-c3ccncc3)nn12)Nc1ccc(F)cc1	-63.2

Compound	hERG current change (%, negative = inhibition) at 10uM [%]
COc1ccc(C(=O)N2CC3(CC(c4cccc(NC(=O)COc5ccc(Cl)cc5)c4)=NO3)C[C@@H]2C(N)=O)cc1 (stereo partly drawn)	-22.1
C/C(=N/NC(=O)CSc1nc2ccccc2n1C)c1ccc(O)cc1	21.1
O=C(CCN1C(=O)c2ccccc2S1(=O)=O)N1CCN(c2ccccc2F)CC1	-5.02
CC(C)CN1C(=O)CC(Sc2ccccc2C(=O)O)C1=O (stereo not drawn)	-10.6
COc1ccc(C2(CNC(=O)Cc3ccccc3)CCCC2)cc1OC	1.4
CCCCCn1c(N(C)Cc2ccccc2)nc2c1c(=O)[nH]c(=O)n2C	-17.1
Cc1cc(C)nc(NN=C(c2ccccc2)c2ccccc2)n1	3.72
Cc1cc(NC(=O)CCC(=O)N(c2ccccc2)C(C(=O)NC2CCCC2)c2ccncc2)no1 (stereo not drawn)	2.53
C=CCN(CC=C)C(=O)Nc1ccc(OCC)cc1	7.41
CCOc1ccc(S(=O)(=O)N2CCN(C(=O)c3cc([N+](=O)[O-])ccc3N3CCOCC3)CC2)cc1	-20.8
Cc1ccccc1C(=O)Oc1cc(N)n(S(=O)(=O)c2ccccc2)n1	9.18
CC1(C)CC2(CCO1)OC(=O)CC2C(=O)Nc1cccc2ccccc12 (stereo not drawn)	12
CN(c1ccccc1)S(=O)(=O)c1cccc(NC(=O)CN2CCc3ccccc3C2)c1	-5.64
Cc1cc(C)n2nc(-c3ccccc3)c(-c3ccccc3)c2n1	17.4
C#Cc1cccc(C(=O)NC2CCCN(C3Cc4ccccc4C3)C2)c1 (stereo not drawn)	-64.4
CCN(CC)c1nc2ccccc2nc1C(C#N)C(=O)NCCCOC (stereo not drawn)	-19.3
Cc1[nH]c(=O)c(Cc2ccccc2)c(O)c1C#N	10.3
CCN(CC)S(=O)(=O)c1ccc(OC)c(NC(=O)Cn2cnc3c2c(=O)n(C)c(=O)n3C)c1	-41.3
Cn1c(=O)c(=O)n(C)c2cc(S(=O)(=O)N3CCC(Cc4ccccc4)CC3)ccc21	-10.9
CC(C)(Oc1ccc(Cl)cc1)C(=O)NC1CC1	1.41
Oc1cccc(/C=N\Nc2nncc(-c3ccccc3)n2)c1	1.72
